The supplement of paper PMC4967469
Lines with a small IC50 respond at low doses; where the fit passes the top or lowest dose, that dose stands as a limit. AUC, from the same fit, is the share of area under the viability curve across the 256-fold dose range; the more sensitive the line, the further below 1. A top dose marked as inferred was derived from the fitted curves, not read from the paper.

How the values were obtained:
Assay in all cases: Viability of human cancer cell lines after 72 h of drug (GDSC screen)
CH5424802 = compound: CCc1cc2c(cc1N1CCC(N3CCOCC3)CC1)C(C)(C)c1[nH]c3cc(C#N)ccc3c1C2=O [CH5424802]; settings: top dose 5.12 µM; top dose inferred
Experimental: (§1)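 Human cancer cell lines in 384-well plates, medium with 10% serum, drug for 72 h over a 256-fold dose range (nine 2-fold or five 4-fold steps up to the top dose). Adherent lines were fixed and stained with the nucleic acid dye Syto60, suspension lines read with resazurin; signal relative to control wells, capped at 0 and 100%. One two-parameter sigmoid per drug and line, fitted in a mixed model over all curves with the slope shared within a line.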

ACHP (KIN001-260) = compound: N#Cc1c(C2CCNCC2)cc(-c2c(O)cccc2OCC2CC2)nc1N [ACHP (KIN001-260)]; settings: top dose 20 µM; top dose inferred
Experimental: as §1

CAY10603 = compound: CC(C)(C)OC(=O)Nc1ccc(-c2cc(C(=O)NCCCCCCC(=O)NO)no2)cc1 [CAY10603]; settings: top dose 20 µM; top dose inferred
Experimental: as §1

XMD8-92 = compound: CCOc1cc(N2CCC(O)CC2)ccc1Nc1ncc2c(n1)N(C)c1ccccc1C(=O)N2C [XMD8-92]; settings: top dose 10 µM; top dose inferred
Experimental: as §1

| Cell Line | AUC (CH5424802) | IC50 (CH5424802) | AUC (ACHP (KIN001-260)) | IC50 (ACHP (KIN001-260)) | AUC (CAY10603) | IC50 (CAY10603) | AUC (XMD8-92) | IC50 (XMD8-92) |
| --- | --- | --- | --- | --- | --- | --- | --- | --- |
| NCI-H2141 (small cell lung carcinoma, suspension) | 0.989 | > 5.12 µM | 0.989 | > 20 µM | 0.662 | 3480 nM | 0.99 | > 10 µM |
| OCUB-M (breast, adherent) | 0.685 | 0.97 µM | 0.965 | > 20 µM | 0.378 | 606 nM | 0.922 | > 10 µM |
| ES4 (Ewing sarcoma, adherent) | 0.98 | > 5.12 µM | 0.953 | > 20 µM | 0.659 | 3710 nM | 0.919 | > 10 µM |
| RERF-LC-MS (lung adenocarcinoma, adherent) | 0.985 | > 5.12 µM | 0.977 | > 20 µM | 0.62 | 2700 nM | 0.947 | > 10 µM |
| KYAE-1 (oesophagus, suspension) | 0.926 | > 5.12 µM | 0.949 | > 20 µM | 0.55 | 1740 nM | 0.869 | > 10 µM |
| MZ2-MEL (melanoma, adherent) | 0.973 | > 5.12 µM | 0.942 | > 20 µM | 0.703 | 5200 nM | 0.878 | > 10 µM |
| SNU-81 (large intestine, adherent) | 0.976 | > 5.12 µM | 0.982 | > 20 µM | 0.982 | > 20000 nM | 0.951 | > 10 µM |
| NCI-H630 (large intestine, adherent) | 0.892 | > 5.12 µM | 0.976 | > 20 µM | 0.63 | 2930 nM | 0.867 | > 10 µM |
| TGBC1TKB (biliary tract, adherent) | 0.988 | > 5.12 µM | 0.989 | > 20 µM | 0.677 | 3880 nM | 0.961 | > 10 µM |
| Daudi (Burkitt lymphoma, suspension) | 0.986 | > 5.12 µM | 0.958 | > 20 µM | 0.376 | 597 nM | 0.858 | 6.56 µM |
| PCI-6A (head and neck, adherent) | 0.983 | > 5.12 µM | 0.977 | > 20 µM | 0.307 | 363 nM | 0.952 | > 10 µM |
| NCC021 (kidney, adherent) | 0.925 | > 5.12 µM | 0.984 | > 20 µM | 0.46 | 956 nM | 0.97 | > 10 µM |
| MFE-296 (endometrium, adherent) | 0.985 | > 5.12 µM | 0.982 | > 20 µM | 0.813 | 11800 nM | 0.906 | > 10 µM |
| HCC-78 (lung adenocarcinoma, adherent) | 0.977 | > 5.12 µM | 0.982 | > 20 µM | 0.485 | 1130 nM | 0.881 | > 10 µM |
| ONS-76 (medulloblastoma, adherent) | 0.979 | > 5.12 µM | 0.964 | > 20 µM | 0.501 | 1260 nM | 0.935 | > 10 µM |
| NCI-H292 (lung adenocarcinoma, adherent) | 0.977 | > 5.12 µM | 0.925 | > 20 µM | 0.357 | 461 nM | 0.851 | > 10 µM |
| H2722 (mesothelioma, adherent) | 0.984 | > 5.12 µM | 0.984 | > 20 µM | 0.564 | 1930 nM | 0.877 | > 10 µM |
| UACC-62 (melanoma, adherent) | 0.986 | > 5.12 µM | 0.988 | > 20 µM | 0.696 | 4410 nM | 0.811 | 5.23 µM |
| SBC-1 (small cell lung carcinoma, suspension) | 0.989 | > 5.12 µM | 0.989 | > 20 µM | 0.391 | 636 nM | 0.784 | 4.07 µM |
| ES-2 (ovary, adherent) | 0.991 | > 5.12 µM | 0.916 | > 20 µM | 0.275 | 317 nM | 0.99 | > 10 µM |
| SHP-77 (small cell lung carcinoma, semi-adherent) | 0.988 | > 5.12 µM | 0.986 | > 20 µM | 0.561 | 1800 nM | 0.991 | > 10 µM |
| WM-115 (melanoma, adherent) | 0.968 | > 5.12 µM | 0.947 | > 20 µM | 0.534 | 1580 nM | 0.919 | > 10 µM |
| NCI-H1975 (lung adenocarcinoma, adherent) | 0.929 | > 5.12 µM | 0.975 | > 20 µM | 0.526 | 1490 nM | 0.926 | > 10 µM |
| HCC1419 (breast, adherent) | 0.966 | > 5.12 µM | 0.95 | > 20 µM | 0.747 | 8830 nM | 0.945 | > 10 µM |
| ETK-1 (biliary tract, adherent) | 0.973 | > 5.12 µM | 0.868 | > 20 µM | 0.544 | 1670 nM | 0.859 | > 10 µM |
| LS-513 (large intestine, adherent) | 0.987 | > 5.12 µM | 0.888 | > 20 µM | 0.668 | 3750 nM | 0.959 | > 10 µM |
